# According to PubChem BioAssay AID488969 (Vanderbilt High Throughput Screening Facility, 2010):
# Whole data set: some 110,000 compounds, median “z-score” near -0.1, cut for the highest 2% near 2. This is one part of the list. Calls of active or inactive are those of the source.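 Rule for the calls: active = z-score in the third read window above 3 or below -3; inactive = the rest.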
# Target: Metabotropic glutamate receptor 8 (Rattus norvegicus) (UniProt P70579)
# Assay: rat mGluR8 modulators via GIRK flux, primary screen, cell-based, thallium flux, HTS (AID 488969)
# Details: HEK293 rat mGluR8, GIRK (G protein-gated inwardly rectifying potassium channel) thallium flux, FluoZin2; at 10 µM; stronger effect = higher value; submaximal glutamate (EC20) added with thallium
# Chain of UniProt P70579 (P70579 whole entry, looked up): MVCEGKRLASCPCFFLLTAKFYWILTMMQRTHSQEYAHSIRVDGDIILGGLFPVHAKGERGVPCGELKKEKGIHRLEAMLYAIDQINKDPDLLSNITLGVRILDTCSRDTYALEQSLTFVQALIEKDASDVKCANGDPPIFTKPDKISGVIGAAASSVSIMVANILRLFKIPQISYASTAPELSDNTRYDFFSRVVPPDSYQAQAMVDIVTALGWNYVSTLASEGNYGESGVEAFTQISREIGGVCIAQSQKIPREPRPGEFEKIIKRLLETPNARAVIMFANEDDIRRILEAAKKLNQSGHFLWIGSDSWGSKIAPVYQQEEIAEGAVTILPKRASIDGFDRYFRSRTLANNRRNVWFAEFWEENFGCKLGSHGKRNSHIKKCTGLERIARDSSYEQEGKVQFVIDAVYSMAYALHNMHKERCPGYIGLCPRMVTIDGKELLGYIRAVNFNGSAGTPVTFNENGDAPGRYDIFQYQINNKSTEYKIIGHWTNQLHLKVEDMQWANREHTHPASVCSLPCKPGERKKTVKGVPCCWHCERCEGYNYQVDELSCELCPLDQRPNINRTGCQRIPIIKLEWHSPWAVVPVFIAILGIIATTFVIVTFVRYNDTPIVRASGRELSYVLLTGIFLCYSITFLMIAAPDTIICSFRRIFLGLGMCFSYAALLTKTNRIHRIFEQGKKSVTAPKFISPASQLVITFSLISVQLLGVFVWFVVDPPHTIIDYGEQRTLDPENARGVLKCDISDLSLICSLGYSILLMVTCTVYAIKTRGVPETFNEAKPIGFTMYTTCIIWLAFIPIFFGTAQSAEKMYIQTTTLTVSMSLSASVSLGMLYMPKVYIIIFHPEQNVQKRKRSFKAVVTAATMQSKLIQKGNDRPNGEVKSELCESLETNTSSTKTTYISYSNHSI
row,Compound,z-score
1,N#Cc1nc(-c2ccco2)oc1N1CCN(Cc2ccccc2)CC1,-0.995
2,O=C(CSc1nnc(C2CC2)n1-c1ccccc1)NCCc1ccccc1,-0.088
3,COc1ccc2nc(SCC(=O)Nc3ccc4c(c3)CCC4)[nH]c2c1,0.226
4,O=C(C1CCCO1)N1CCc2ccccc21 (centres undefined),0.0175
5,Cc1ccc(S(=O)(=O)NCCC(c2ccc(F)cc2)c2ccco2)cc1 (centres undefined),-0.25
6,O=C(NC(=S)NNS(=O)(=O)c1ccccc1)c1ccc([N+](=O)[O-])cc1,-0.0377
7,Cc1ccc(CSc2sc(C(=O)c3ccccc3)c(N)c2C#N)cc1,-0.0563
8,Cc1ccc(/C(N)=N/OC(=O)N2CCOCC2)cc1,-0.314
9,CCOc1ccc(S(=O)(=O)NCc2ccco2)cc1,-0.0605
10,Cc1nc(NCc2ccccn2)c2ccccc2n1,0.238
11,O=C(O)c1c(F)c(F)cc2ccccc12,0.365
12,CCSc1ncnc2c1sc1nc3c(cc12)COC(C)(C)C3,0.111
13,O=c1c2ccccc2nc(/C=C/c2cccc([N+](=O)[O-])c2)n1CCO,0.0948
14,Cc1c(NCc2cc(Cl)cc(Cl)c2O)c(=O)n(-c2ccccc2)n1C,-0.115
15,O=C(CSc1nnc(Cc2cc(=O)[nH]c(=O)[nH]2)n1-c1ccc(F)cc1)NC1CCCC1,0.00117
16,CCOC(=O)C(C)Sc1nnc(Cc2cc(=O)[nH]c(=O)[nH]2)n1-c1cccc(OC)c1 (centres undefined),0.0951
17,O=C(C1=NN[C@@H]2C(=O)N(c3cccc(F)c3)C(=O)[C@H]12)C(c1ccccc1)c1ccccc1,-0.23
18,c1ccc(SCCOCCN2CCc3ccccc3C2)cc1,0.295
19,Cc1ccc(-n2c(C)nnc2SCC(=O)N2CCc3ccccc3C2)cc1C,-0.57
20,O=C(CCCn1c(=S)[nH]c2cc3c(cc2c1=O)OCO3)N1CCN(c2ccc(Cl)cc2)CC1,-0.36
21,CCC(C)N1CCN(C(=O)c2cccs2)CC1 (centres undefined),0.327
22,S=C(NCCc1ccccc1)Nc1ccc(Br)cc1,0.268

row,Compound,z-score
1,COC(=O)c1ccccc1-c1ccc(/C=C2\C(=O)N(c3ccccc3)N=C2c2ccccc2)o1,-0.0357
2,COC(=O)CCC(=O)Nc1cccc(C(=O)Nc2cccc(Cl)c2)c1,0.0914
3,N#Cc1c(-c2ccccc2)nc2n(-c3ccccc3)nc(C(=O)Nc3ccccc3)n2c1=O,-0.39
4,COc1cccc(CNc2ccc3c(c2)ncn3C(C)C)c1OC,-1.6
5,CC1CCCN(S(=O)(=O)c2ccccc2[N+](=O)[O-])C1 (centres undefined),0.182
6,CCC1CCCCN1C(=S)NC(=O)c1ccc([N+](=O)[O-])cc1 (centres undefined),active: 9.16
7,O=C(Nc1ccc2c3c(cccc13)CC2)c1ccc(Br)o1,0.0664
8,COc1ccccc1NC(=O)Cn1nnc(-c2ccccc2NS(=O)(=O)c2ccccc2)n1,-0.198
9,CCCOc1ccc(C2/C(=C(\O)c3c(C)[nH]c(C(=O)OC)c3C)C(=O)C(=O)N2CCN(C)C)cc1 (centres undefined),0.491
10,Cc1nc2cc(N3CCCCC3)c(NC(=O)c3ccncc3)cc2c(=O)n1Cc1ccccc1,-0.0957
11,CCOc1ccc(-c2cc(C(=O)NN3CCN(C)CC3)c3cc(Cl)ccc3n2)cc1,-0.0539
12,COCC(=O)Nc1cc([N+](=O)[O-])ccc1C,-0.258
13,CCOC(=O)c1ccc(N2C(=O)C(C)=C(C)C2=O)cc1,0.616
14,O=C(Nc1ccc(Cl)cc1)N(Cc1cccnc1)Cc1ccco1,1.62
15,C(=C\c1ccccc1)/C=N/Nc1nc2ccccc2s1,-0.125
16,Cn1c(N)c(C(=O)COC(=O)C2=COCCO2)c(=O)n(C)c1=O,0.121
17,O=C(NCc1cccs1)c1cc(C2CC2)on1,0.944
18,CN(CC(=O)Nc1ccccc1Oc1ccccc1)Cc1ccccc1F,0.0859
19,OCn1ncn(-c2ccccc2)c1=S,-0.0243
20,CCn1c(SCC(=O)c2ccc(C)cc2)nnc1-c1ccncc1,0.101
21,CCNc1nc(CN2CCCCC2)nc2scc(-c3ccccc3)c12,0.384
22,C(=N\c1nc2ccccc2n1CCN1CCCCC1)/c1ccc2c(c1)OCO2,-0.298

row,Compound,z-score
1,Cc1cc(NC(=O)Nc2cccs2)no1,-0.218
2,CC1=C(C(=O)Nc2ccc(C)cc2C)C(c2ccc(C)o2)NC(=O)N1 (centres undefined),-0.12
3,Nc1ncnc2nc(SCc3ccc(Cl)cc3Cl)[nH]c12,0.793
4,Cc1ccc(-c2nnn(CC(=O)N(CC3CCCO3)C(C(=O)NC3CCCC3)c3ccc(F)cc3)n2)o1 (centres undefined),-0.0511
5,O=C(Nc1ccc(Nc2ccccc2)cc1)c1ccco1,-0.294
6,Cc1ncc(CO)c(/C=N/NC(=O)c2ccc(Br)cc2)c1O,0.712
7,COc1ccc(S(=O)(=O)N(Cc2ccc(OC)c(OC)c2)Cc2ccco2)cc1,-0.388
8,Cc1cccc(NC(=O)C2SC(=Nc3c(C)cccc3C)C(C(=O)N3CCOCC3)=C2N)c1 (centres undefined),-0.48
9,Cc1ccccc1C(=O)c1c[nH]c(C(=O)NCc2cccs2)c1,0.307
10,C/C(N)=C(/C#N)C(=O)COC(=O)c1cc(C)n(-c2ccc(F)cc2)c1C,-0.578
11,Cc1cc(-c2csc(NC(=O)c3ccc(=O)n(C)n3)n2)c(C)n1CC1CCCO1 (centres undefined),-1.41
12,CC1(C)CC(=O)C=C(NCc2ccco2)C1,-0.0748
13,O=C(O)CCc1ccc(-c2ccccc2)n1-c1cccc(O)c1,0.824
14,Cc1ccc(N2CCN(C(=O)N3CCCC3)CC2)cc1C,0.263
15,CCNC(=O)COc1ccc(-c2ccccc2)cc1,-0.138
16,c1ccc(NCC2OCc3ccccc3CO2)cc1,-0.104
17,CC1(C)CC(=O)C(C2(O)C(=O)N(Cc3ccccc3)c3ccccc32)CO1 (centres undefined),-0.385
18,CC(C)C1Oc2ccccc2N(CC(=O)NCCCN2C(C)CCCC2C)C1=O (centres undefined),0.132
19,CCOc1ccc(-n2cc(C(=O)Nc3cccc(C)n3)c3cc(OC)c(OC)cc3c2=O)cc1,-0.379
20,CCN(CC)c1ccc(NC(=O)c2cnn(CC)c2)cc1,-0.00246
21,COc1cccc(-c2nc(-c3ccc(NC(=O)c4cccnc4)cc3)no2)c1,0.903
22,Cc1cc([N+](=O)[O-])c(-c2ccc(/C=N/n3cnnc3)o2)cc1Cl,-0.526

row,Compound,z-score
1,Clc1cccc(Cl)c1Cn1nnc(-c2cccs2)n1,1.93
2,COc1ccccc1C1C(C(N)=O)=C(C)Nc2ncnn21 (centres undefined),-0.00954
3,CC(=O)c1c(C)nc(C)nc1NC(=O)Cc1ccccc1,-0.359
4,Cc1ccc(SCCOCCN2CCc3ccccc3C2)cc1,0.529
5,N#Cc1c(=O)c2nc(NCc3ccccc3)ncc2n2ccccc12,-0.143
6,CC(C)CNC(=O)C(=O)NNC(=O)C1CCCCC1,1.21
7,CCN(CC)CCOC(=O)c1cccc(OC)c1,-0.193
8,COC(=O)CCC(=O)NNC(=O)CCCOc1ccc(Cl)cc1Cl,0.0585
9,Cc1ccc(/C=N/NC(=O)CCCOc2ccc(Cl)cc2Cl)cc1[N+](=O)[O-],-0.174
10,COc1ccc(-c2nc(Cn3c(SCc4ccc(F)cc4)nc4ccncc43)c(C)o2)cc1OC,0.565
11,O=C(N/N=C/C1CC=CCC1)c1ccc(Cl)cc1O (centres undefined),-0.0913
12,Cc1ccc(-c2nn(-c3ccccc3)cc2/C=N/NC(=O)c2ccc(Br)o2)cc1,-0.0869
13,O=C(COC(=O)c1cccc(S(=O)(=O)N2CCc3ccccc32)c1)NC1CCS(=O)(=O)C1 (centres undefined),-0.363
14,Cc1cc(C(=O)COC(=O)CN=C2NS(=O)(=O)c3ccccc32)c(C)n1CCc1ccc(Cl)cc1,-0.267
15,Cc1cc(=O)[nH]c(N2CCN(Cc3ccccc3)CC2)n1,-0.021
16,O=C(Nc1nnc(-c2ccccc2Cl)o1)c1cc2cc([N+](=O)[O-])ccc2s1,0.848
17,CCn1c(SCC(=O)Nc2ccc(S(N)(=O)=O)cc2)nnc1-c1ccccc1OC,-0.0171
18,CCN1C(=O)c2cccc3c(S(=O)(=O)N(C(=O)c4ccncc4)c4ccc(OC)cc4)ccc1c23,-0.184
19,COc1cc(C(=O)NC(=S)Nc2ccc([N+](=O)[O-])cc2C)cc(OC)c1OC,-0.056
20,CC(C)OC(=O)CC12CN3CC(CC(=O)OC(C)C)(CN(C1)C(=O)c1ccccc1C3=O)C2=O,-0.294
21,CCCc1ccc(-c2c(C)sc(NC(=O)c3ccnn3C)c2C#N)cc1,-0.124
22,COc1ccc(CCNC(=O)c2cc(CC(C)C)on2)cc1OC,-0.0915

row,Compound,z-score
1,Cc1ccc2nc3c(cc(C#N)c(=N)n3CCCN3CCOCC3)c(=O)n2c1,0.43
2,O=C(COc1ccc(S(=O)(=O)N2CCOCC2)cc1)Nc1ccccc1C(F)(F)F,1.25
3,Cc1ccc(CCNC(=O)C2CCCN(C(=O)c3cc4sccc4n3C)C2)cc1 (centres undefined),-0.287
4,COC(=O)c1cc(OC)c(OC)cc1NC(=O)CC1CCCCC1,-0.624
5,COc1ccc2c(c1)CCc1c(C(=O)NCCc3ccc(OC)c(OC)c3)noc1-2,-1.38
6,N#CCCSCc1ccc(OCC(=O)O)cc1,-0.199
7,COc1ccc(N2CCN(C(=O)C(Cc3ccccc3)n3cccc3)CC2)cc1 (centres undefined),-0.419
8,CN(C)C(=O)Cn1nc(-c2ccccc2)c2ccccc2c1=O,0.23
9,COCCn1c(=O)[nH]c2cc(C(=O)NCc3cccnc3)ccc2c1=O,-0.183
10,O=C(Cn1c(Cc2ccccc2)nc2ccccc21)NCc1ccc2c(c1)OCO2,-0.253
11,Cc1ccc(-c2c(C(=O)NCc3ccccc3)oc(=O)c3ccccc23)cc1,0.292
12,Nc1cccc(-n2nnnc2CN2CCOCC2)c1,1.94
13,Cc1ccc(-c2nnn(CC(=O)N(Cc3ccccc3F)C(C(=O)NC3CCCC3)c3ccncc3)n2)o1 (centres undefined),-0.155
14,O=C(COc1ccc(Cl)cc1Cl)NC1CCSC1=O (centres undefined),-0.434
15,CC(C)CC1NC(=O)N(CC(=O)c2ccc3c(c2)OCCO3)C1=O (centres undefined),-0.0713
16,COc1ccc(Nc2nc(Cl)nc(NCc3ccco3)n2)c(OC)c1,0.00838
17,O=C(c1sc2ccccc2c1Cl)N(Cc1cccs1)C1CCS(=O)(=O)C1 (centres undefined),-0.282
18,Cc1ccc(NC(=O)C2CCN(C(=O)NC3CCCCC3)CC2)cc1,0.0162
19,Cc1ccc(C2/C(=C(/O)c3ccc(OC(C)C)cc3)C(=O)C(=O)N2CCN2CCOCC2)cc1 (centres undefined),-0.251
20,CC(C)(C)C(=O)CSc1nc2c(c(-c3cccs3)c1C#N)CCC2,-0.545
21,Cc1ccc(C)c(C(=O)CSc2nnnn2-c2cccnc2)c1,0.0368
